The values below come from PubChem BioAssay AID493035 (The Scripps Research Institute Molecular Screening Center, 2011).

Values joined by “and” are separate entries in the source; they are usually repeats but may differ in a detail not shown here. Identical values can stand only once. Screen size: about 2,000 compounds; about 45 (2%) were called active.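 Rule for the calls: active = inhibition above the mean of all tested compounds plus 3 SD (cut at about 49% in these data); inactive = the rest.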 Some of the results follow. Where a SMILES comes first, the peptide text is derived from it.

For this assay, the target named is Perilipin-5 (Homo sapiens) + 1-acylglycerol-3-phosphate O-acyltransferase ABHD5 (Homo sapiens) (UniProt Q00G26+Q8WTS1). Put plainly: ABHD5-PLIN5 interaction inhibitors, pilot screen, cell lysate, split luciferase complementation, luminescence, NIH validation set (AID 493035).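 Note: 0% = DMSO only wells while the 100% control is not stated.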 The following applies: split G. princeps luciferase complementation, lysates, 4 h, at 7.9 µM, hits give high values.
Chain of UniProt Q00G26 (Q00G26 whole entry, looked up): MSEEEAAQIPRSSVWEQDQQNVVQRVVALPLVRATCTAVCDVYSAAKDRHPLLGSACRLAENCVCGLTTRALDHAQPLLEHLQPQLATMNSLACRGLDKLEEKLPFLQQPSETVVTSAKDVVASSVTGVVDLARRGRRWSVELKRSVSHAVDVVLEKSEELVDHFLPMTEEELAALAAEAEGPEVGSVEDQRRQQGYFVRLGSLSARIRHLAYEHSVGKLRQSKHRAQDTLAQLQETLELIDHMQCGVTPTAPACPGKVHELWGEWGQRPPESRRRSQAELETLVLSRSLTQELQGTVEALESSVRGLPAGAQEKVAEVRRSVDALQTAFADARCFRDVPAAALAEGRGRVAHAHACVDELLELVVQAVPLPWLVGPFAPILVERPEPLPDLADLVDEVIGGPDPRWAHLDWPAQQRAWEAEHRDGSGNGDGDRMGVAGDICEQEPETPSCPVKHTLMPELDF
Chain of UniProt Q00G26 (Q8WTS1 whole entry, looked up): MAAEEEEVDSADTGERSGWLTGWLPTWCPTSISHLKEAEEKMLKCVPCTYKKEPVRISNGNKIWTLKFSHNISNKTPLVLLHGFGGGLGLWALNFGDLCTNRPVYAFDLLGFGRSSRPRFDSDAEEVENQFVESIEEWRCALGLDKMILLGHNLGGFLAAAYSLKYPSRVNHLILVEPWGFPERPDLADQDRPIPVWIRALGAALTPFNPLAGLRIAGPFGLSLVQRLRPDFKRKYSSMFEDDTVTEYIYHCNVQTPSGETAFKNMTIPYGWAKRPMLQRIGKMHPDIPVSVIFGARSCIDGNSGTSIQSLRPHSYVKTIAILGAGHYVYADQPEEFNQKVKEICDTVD
For the compound `Nc1ccncc1`, the inhibition was inactive: -4.92%.

With `C[N+]1(C)CCOC(O)(c2ccc(-c3ccc(C4(O)C[N+](C)(C)CCO4)cc3)cc2)C1` (stereo not given), the inhibition was inactive: -6.43%.

As to `C[C@]12CCC(=O)C=C1CC[C@@H]1[C@@H]2C(=O)C[C@]2(C)C(=O)CC[C@@H]12`, the inhibition was inactive: -5.52%.

`COc1ccc(C(=O)N2CCCC2=O)cc1`: the inhibition was inactive: 5.49%.

With `O=C(O)CCCc1ccc(N(CCCl)CCCl)cc1`, the inhibition is inactive: 2.98%.

Regarding `CC(C)[C@@]1(NC(=O)[C@@H]2C[C@@H]3c4cccc5[nH]cc(c45)C[C@H]3N(C)C2)O[C@@]2(O)[C@@H]3CCCN3C(=O)[C@H](Cc3ccccc3)N2C1=O`, the inhibition was inactive: -8.89%.

With `CCOc1ccc(C2C(C#N)=C(N)Oc3c2c(=O)oc2ccccc32)cc1` (stereo not given), the inhibition was inactive: 16%.

In the case of `CC12CCC3C(CC=C4CC5(CCC43C)OCCO5)C1CCC2=O` (stereo not given), the inhibition was inactive: 1.45%.

`CC(C)CC12CN3CCN(CC(C3)C1O)C2` (stereo not given): the inhibition was inactive: 0.3%.

On to `Clc1ccc(CSC(Cn2ccnc2)c2ccc(Cl)cc2Cl)cc1` (stereo not given), for which the inhibition was inactive: 0.39%.

Turning to `CCCC[N+]1(C)[C@@H]2CC(OC(=O)[C@H](CO)c3ccccc3)C[C@H]1[C@@H]1O[C@@H]12` (stereo not given in full), the inhibition is inactive: 2.01%.

For the compound `CC(CCc1ccccc1)NC(C)C(O)c1ccc(O)cc1` (stereo not given), the inhibition was inactive: -7.85%.

As for `O=C1CN=C(c2ccccc2F)c2cc(Cl)ccc2N1`, the inhibition is inactive: -9.8%.

For the compound `CC(C)C[C@H](NC(=O)[C@@H]1CCCN1C(=O)[C@@H](N)Cc1ccc(O)cc1)C(=O)NCC(N)=O` (H-YPLG-NH2), the inhibition is inactive: -12.9%.

Take `C[C@H](O)[C@H]1CC[C@H]2[C@@H]3CCC4=CC(=O)CC[C@]4(C)[C@H]3CC[C@]12C`: the inhibition is inactive: -1.19%.

Take `CN1C(=O)N(C)C(=O)C2(Cc3ccccc3N3CCOCC32)C1=O` (stereo not given): the inhibition is inactive: 3.51%.

As to `Cc1cc(Cl)ccc1OCC(=O)O`, the inhibition is inactive: 5.14%.

Turning to `CCNC(=S)N(C)CCc1cc2c(c(OC)c1C=C1C(=O)N(C)C(=O)N(C)C1=O)OCO2`, the inhibition was inactive: 9.42%.

Turning to `NNC(=O)c1ccc(Cl)cc1`, the inhibition is inactive: 2.19%.

Take `COc1cc2c3cc1Oc1cc(ccc1O)C[C@@H]1c4c(cc(OC)c(O)c4Oc4ccc(cc4)C[C@H]3N(C)CC2)CCN1C`: the inhibition is inactive: -1.89%.

Take `CC(Cc1ccccc1)NCC(=O)Nc1cc(N(C)C)nc2ccccc12` (stereo not given): the inhibition is inactive: 2.7%.

In the case of `C[C@H]1CCCC(=O)CCC/C=C/c2cc(O)cc(O)c2C(=O)O1`, the inhibition was inactive: -1.44%.

For `Cc1ccc(-n2c(C)cc(/C=C3/C(=O)NC(=O)N(C)C3=O)c2C)cc1`, the inhibition was inactive: 33.2%.

With `Cc1ccsc1C(=O)C1CCCN(Cc2cc3ccccc3o2)C1` (stereo not given), the inhibition is inactive: -2.51%.

Take `OC1CCCCC1N1CCC(c2ccccc2)CC1` (stereo not given): the inhibition is inactive: 1.24%.

Consider `C[C@]12CC[C@@H](O)C[C@@H]1CC[C@@H]1[C@@H]2CC[C@]2(C)[C@@H](O)CC[C@@H]12`, for which the inhibition was inactive: -3.26%.

As for `COc1ccc2c(c1)CC1(CN2C)C(=O)NC(=O)N(CCc2ccccc2)C1=O` (stereo not given), the inhibition was inactive: 3.64%.

As to `C[C@H]1CCC/C=C/C2C[C@H](O)CC2[C@H](O)/C=C/C(=O)O1` (stereo not given in full), the inhibition was inactive: -14.2%.

On to `CC(=O)OC1C2CCC1C(N1CCCC1)CC2` (stereo not given), for which the inhibition was inactive: 1.91%.

Regarding `CC12CCC3C(CC=C4CC(O)CCC43C)C1C/C(=C\c1cccc(F)c1)C2=O` (stereo not given), the inhibition was inactive: -0.83%.

Take `CC12CC[C@H]3[C@@H](CCC4(O)C[C@H](O)CCC34/C=N/NC(=O)Cc3ccccc3)C1(O)CCC2C1=CC(=O)OC1` (stereo not given in full): the inhibition was inactive: -6.3%.

Turning to `CC12CN3CC(C)(CN(C1)C31CCOCC1)C2=O`, the inhibition was inactive: -15.3%.

`C[C@]12CC[C@@H](O)C[C@@H]1CC[C@@H]1[C@@H]2CC[C@]2(C)C(=O)CC[C@@H]12`: the inhibition is inactive: -8.46%.

In the case of `CC[C@]12C=CCN3CCC4(c5cc(Br)c(OC)cc5N(C)C4[C@@](O)(C(=O)OC)[C@@H]1OC(C)=O)C32` (stereo not given in full), the inhibition was inactive: -5.38%.

For `C[C@@H]1O[C@@H](O[C@H]2C[C@@H](O)[C@]3(CO)[C@H]4[C@H](O)C[C@]5(C)[C@@H](C6COC(=O)C6)CC[C@]5(O)[C@@H]4CC[C@]3(O)C2)[C@H](O)[C@H](O)[C@H]1O` (stereo not given in full), the inhibition is inactive: -8.05%.

Consider `O=c1[nH]c2ccccc2n1CCCN1CCC(n2c(=O)[nH]c3cc(Cl)ccc32)CC1`, for which the inhibition is inactive: -4.38%.

For the compound `C#C[C@]1(O)CC[C@H]2[C@@H]3CCC4=CC(=O)CC[C@]4(C)[C@H]3CC[C@@]21C`, the inhibition was inactive: -0.76%.

With `CC(C)[N+](C)(CCC(C(N)=O)(c1ccccc1)c1ccccc1)C(C)C`, the inhibition is inactive: -7.44%.

On to `O=C1CCCC2=C1C(c1cccnc1)Nc1ccccc1N2` (stereo not given), for which the inhibition was inactive: 2.51%.

Turning to `CC[C@@H]1C(=O)OC[C@@H]1Cc1cncn1C`, the inhibition is inactive: -5.38% and inactive: -3.68%.

With `C#CCN(C)C(C)Cc1ccccc1` (stereo not given), the inhibition was inactive: -8.51%.

In the case of `Cc1cc(OCc2cc(C(=O)O)oc2C)c2c3c(c(=O)oc2c1)CCCC3`, the inhibition was inactive: 2.93%.

On to `NC(=O)CN1CCCC1=O`, for which the inhibition was inactive: -4.54%.

Turning to `O=C1NC(=O)C2(Cc3ccccc3N3CCCC32)C(=O)N1c1ccc(Cl)cc1` (stereo not given), the inhibition was inactive: 20.7%.

`Cc1c2ccncc2c(C)c2c1[nH]c1ccccc12`: the inhibition was inactive: -3.24%.

With `Cc1nc2ccccc2c(=O)n1-c1ccc(C(=O)O)cc1`, the inhibition is inactive: 7.89%.

With `COc1cc(/C=C2\C(=O)NC(=O)N(c3ccccc3)C2=O)c([N+](=O)[O-])cc1OC`, the inhibition is active: 63.5%.

For the compound `C=C1[C@@H](C)[C@H]2[C@H](Cc3ccccc3)NC(=O)[C@]23OC(=O)/C=C/[C@H](O)CCC[C@@H](C)C/C=C/[C@H]3[C@@H]1O`, the inhibition was inactive: -1.05%.

Consider `C[N+]1(C)[C@@H]2CC[C@H]1CC(OC(=O)C(CO)c1ccccc1)C2` (stereo not given in full), for which the inhibition is inactive: 3.11%.

Take `CCOC(=O)C1=C(C)OC(N)=C(C(=O)OCC)[C@@]12C(=O)N(CC(N)=O)c1ccccc12`: the inhibition was inactive: -9.23%.

In the case of `CC/C(=C\C=C\[C@@H]1C=C[C@@H]2CCC[C@H]2[C@@H]1C(=O)c1ccc[nH]1)[C@@H]1O[C@@H]([C@@H](C)C(=O)O)CC[C@@H]1C`, the inhibition was inactive: 0.4%.

In the case of `Cc1cccc(C)c1NC1=NCCCS1`, the inhibition is inactive: -1.36%.

For `CCn1ccnc1CN1CCCC(C(=O)c2cc(F)ccc2OC)C1` (stereo not given), the inhibition was inactive: -5.2%.

Take `CCNC(=O)[C@H]1O[C@@H](n2cnc3c(N)ncnc32)[C@H](O)[C@@H]1O`: the inhibition was inactive: 4.54%.

As for `CN1CC[C@@]23CCCC[C@@H]2[C@@H]1Cc1ccc(O)cc13`, the inhibition was inactive: -1.48%.

Turning to `C[N+](C)(C)Cc1ccccc1`, the inhibition is inactive: -2.04%.

Regarding `CCC(COC(=O)c1cc(OC)c(OC)c(OC)c1)(c1ccccc1)N(C)C` (stereo not given), the inhibition is inactive: 1.32%.

On to `O=c1[nH]c(=S)n(-c2ccccc2)c(O)c1/C=N/N1CCCCC1c1cccnc1` (stereo not given), for which the inhibition was inactive: -0.01%.

As to `CN1C2CCC1CC(OC(=O)CCN1CCCC1)C2` (stereo not given), the inhibition is inactive: -6.29%.

On to `O=C1C(=O)c2ccccc2-c2ccccc21`, for which the inhibition is active: 69.8%.

As to `CCOC(=O)C(C)Oc1cc(C)cc2oc(=O)c3c(c12)CCCC3` (stereo not given), the inhibition was inactive: 6.91%.

With `COP(=S)(OC)SCN1C(=O)c2ccccc2C1=O`, the inhibition was active: 93.3%.

Regarding `COC1=CC(=O)OC(/C=C/c2ccccc2)C1` (stereo not given), the inhibition was inactive: -2.71%.

For the compound `C[C@H]1CCC[C@H](O)CCCCCc2cc(O)cc(O)c2C(=O)O1`, the inhibition was inactive: -3.64%.

In the case of `CC12CN3CC(C)(CN(C1)C3c1cccs1)C2O` (stereo not given), the inhibition was inactive: -0.84%.

With `Clc1ccc(C2NCCc3[nH]cnc32)cc1` (stereo not given), the inhibition was inactive: -9.45%.

In the case of `COc1ccc(Cc2nccc3cc(OC)c(OC)cc23)cc1OC`, the inhibition is inactive: -14.7%.

With `CC1CCC[C@H](O)CCCCCc2cc(O)cc(O)c2C(=O)O1` (stereo not given in full), the inhibition was inactive: -0.89%.

For the compound `CC(C)(C)NCC(O)c1cc(Cl)c(N)c(Cl)c1` (stereo not given), the inhibition was inactive: -1.96%.

For `CN1C2CCC1CC(OC(=O)c1ccc(Cl)cc1)C2` (stereo not given), the inhibition is inactive: 2.67%.

Regarding `CCOC(=O)c1cc2c(cn1)[nH]c1ccccc12`, the inhibition is inactive: -11.3%.

Regarding `NCCc1ccc(O)cc1`, the inhibition is inactive: -0.96%.

As for `C[N+]1(C)CCN(c2ccccc2)CC1`, the inhibition was inactive: 3.04%.

As for `COc1ccc2c3c([nH]c2c1)C(C)=NCC3`, the inhibition is inactive: -1.05%.

With `Fc1ccc(C(OCCN2CCCC2)c2ccc(Br)cc2)cc1` (stereo not given), the inhibition is inactive: -5%.

For `[N-]=[N+]=CC(=O)OC[C@H](N)C(=O)O`, the inhibition was inactive: 1.86%.

As to `O=S(=O)(c1ccc(F)cc1)N1CCCCC1c1cccnc1` (stereo not given), the inhibition is inactive: -5.97%.

With `CC(=O)C1=C(C)OC(N)=C(C(=O)OC(C)C)C12C(=O)Nc1ccccc12` (stereo not given), the inhibition was inactive: -0.22%.

`CC(C)NC(C)C(=O)c1ccc2ccccc2c1` (stereo not given): the inhibition is inactive: 1.56%.

As for `CCN1CC2(COC(=O)c3ccccc3N)CCC(OC)C34C5CC6C(OC)CC(O)(C5C6OC)C(O)(C(OC)C23)C14` (stereo not given), the inhibition is inactive: 0.04%.

As to `COc1ccc(OC)c([C@@H](O)[C@H](C)NC(C)(C)C)c1`, the inhibition is inactive: 2.3%.

Take `C[C@H]1OC[C@@H](C[N+](C)(C)C)O1`: the inhibition is inactive: -3.43%.

Turning to `O=C1CSC2N1CCNC21CCCCC1` (stereo not given), the inhibition was inactive: -2.6%.

With `Clc1ccc(COC(Cn2ccnc2)c2ccc(Cl)cc2Cl)c(Cl)c1` (stereo not given), the inhibition is inactive: 4.9%.

`COc1cccc(Oc2c(C)oc3cc(OC(=O)N(C)C)ccc3c2=O)c1`: the inhibition was inactive: 6.76%.

Take `COc1ccc(CN2CC3CC(C2)c2cccc(=O)n2C3)cc1OC` (stereo not given): the inhibition was inactive: -4.44%.

Take `COc1ccc(OC)c(C(O)C(C)N)c1` (stereo not given): the inhibition was inactive: 6.1%.

For `CN1[C@@H]2CC[C@H]1CC(OC(=O)C1C=Nc3ccccc31)C2` (stereo not given in full), the inhibition was inactive: -3.7%.

Take `CCCC(C)(COC(N)=O)COC(=O)NC(C)C` (stereo not given): the inhibition is inactive: -7.91%.

`C[C@]12CCC(=O)C=C1CC[C@@H]1[C@@H]2CC[C@]2(C)C(=O)CC[C@@H]12`: the inhibition was inactive: -5.66%.
